In the supplement of paper PMC9446081:
Screen size: about 39,000 compounds; about 220 (0.56%) showed activity. Some of the results follow.

These molecules were tested on Escherichia coli K-12 BW25113 (assay: relative growth (OD600 normalised to plate interquartile mean) (fraction); higher = less growth inhibition, active = 0.2 or less). Conditions: 50 µM; LB; incubation time: overnight (16-24 h).
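Note: static incubation at 37 °C against the wild-type strain, values averaged over two biological replicates.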

SMILES	relative growth
C[C@@H]1CN([C@H](C)CO)C(=O)c2cc(NS(=O)(=O)c3cccs3)ccc2O[C@@H](C)CCCCO[C@@H]1CN(C)CC1CCCCC1	inactive: 0.867
C[C@@H]1CCCCO[C@@H](CN(C)C(=O)C2CCCCC2)[C@H](C)CN([C@@H](C)CO)C(=O)c2cc(NS(=O)(=O)c3ccccc3)ccc2O1	inactive: 1.02
C[C@@H]1CN([C@H](C)CO)S(=O)(=O)c2ccc(C#C[C@@H](C)O)cc2O[C@H]1CN(C)C(=O)Nc1ccccc1	inactive: 1.02
COc1ccccc1S(=O)(=O)N(C)C[C@@H]1OCc2cn(nn2)CCCC(=O)N([C@@H](C)CO)C[C@H]1C	inactive: 0.962
Cc1ccccc1S(=O)(=O)N1C[C@@H](O)COC[C@@H]2O[C@H](CC(=O)N3CCN(C)CC3)CC[C@H]21	inactive: 0.981
C[C@H](CO)N1C[C@H](C)[C@@H](CN(C)C(=O)Nc2ccccc2C(F)(F)F)OCc2ccccc2-c2ccccc2C1=O	inactive: 0.995
COc1cccc(NC(=O)C[C@@H]2CC[C@@H]3[C@@H](COc4ccc(NC(=O)C5CCOCC5)cc4C(=O)N3C)O2)c1	inactive: 1.02
C[C@H]1CN([C@@H](C)CO)C(=O)c2cccc(NC(=O)c3cnccn3)c2O[C@H]1CN(C)S(=O)(=O)c1cccs1	inactive: 0.978
CO[C@H]1CN(C)C(=O)c2ccc(NC(=O)CC(F)(F)F)cc2OC[C@H](C)N(C(=O)C2CCOCC2)C[C@@H]1C	inactive: 1.01
CCC(C)C1OC2(CCC1C)CC1CC(CC=C(C)C(OC3CC(OC)C(OC4CC(OC)C(O)C(C)O4)C(C)O3)C(C)C=CC=C3COC4C(O)C(C)=CC(C(=O)O1)C34O)O2 (stereo not given)	inactive: 0.891
CCC(CCC(C)C1CCC2C3CC=C4CC(OC(C)=O)CCC4(C)C3CCC12C)C(C)C (stereo not given)	inactive: 1.15
COc1cc(C(=O)OCCCN2CCCN(CCOC(=O)c3cc(OC)c(OC)c(OC)c3)CC2)cc(OC)c1OC	inactive: 0.958
Cc1cc(C(=O)Nc2cccc3c2O[C@H](CN(C)S(=O)(=O)c2cccs2)[C@H](C)CN([C@H](C)CO)C3=O)n(C)n1	inactive: 0.987
C[C@@H]1CCCCO[C@H](CN(C)C(=O)NC2CCCCC2)[C@H](C)CN([C@H](C)CO)C(=O)c2cc(NC(=O)c3ccncc3)ccc2O1	inactive: 0.978
C[N+](C)(CCOc1ccccc1)Cc1ccccc1.O=C([O-])c1cc2ccccc2cc1O	inactive: 0.93
C[C@@H]1CCCCO[C@H](CN(C)Cc2ccc(C(=O)O)cc2)[C@@H](C)CN([C@@H](C)CO)C(=O)c2cc(NC(=O)Nc3ccccc3)ccc2O1	inactive: 0.974
COc1ccc(S(=O)(=O)N2C[C@H](O)COC[C@H]3O[C@H](CC(=O)N[C@H]4CCN(Cc5ccccc5)C4)CC[C@@H]32)cc1	inactive: 0.99
COc1ccc(CN(C)C[C@@H]2Oc3ccc(NS(=O)(=O)c4c(C)noc4C)cc3CC(=O)N([C@H](C)CO)C[C@H]2C)cc1	inactive: 0.994
CO[C@@H]1CN(C)C(=O)c2cc(NC(=O)C3CC3)ccc2OC[C@H](C)N(C(=O)C2CCOCC2)C[C@H]1C	inactive: 0.989
COC(=O)N/N=C/c1ccc([N+](=O)[O-])o1	active: 0.0393

SMILES	relative growth
Cc1noc(C)c1S(=O)(=O)Nc1ccc2c(c1)C(=O)N([C@@H](C)CO)C[C@H](C)[C@@H](CN(C)S(=O)(=O)c1cn(C)cn1)OCCCC[C@H](C)O2	inactive: 0.997
C[C@H]1CCCCO[C@@H](CN(C)C(=O)Nc2ccc3c(c2)OCO3)[C@@H](C)CN([C@@H](C)CO)C(=O)c2cc(NS(=O)(=O)c3ccccc3)ccc2O1	inactive: 0.975
COc1ccc(S(=O)(=O)N(C)C[C@@H]2Oc3ccc(NS(=O)(=O)c4ccccc4)cc3CC(=O)N([C@@H](C)CO)C[C@@H]2C)cc1	inactive: 0.995
Cc1ccc(S(=O)(=O)Nc2ccc3c(c2)CC(=O)N([C@H](C)CO)C[C@@H](C)[C@@H](CN(C)Cc2ccc(Oc4ccccc4)cc2)O3)cc1	inactive: 1
CO[C@@H]1[C@@H](O[C@@H]2O[C@H](C)[C@@H](O[C@H]3C[C@@](C)(O)[C@@H](OC(=O)CC(C)C)[C@H](C)O3)[C@H](N(C)C)[C@H]2O)[C@@H](CC=O)C[C@@H](C)[C@@H](O)/C=C\C=C/C[C@@H](C)OC(=O)C[C@H]1OC(C)=O	inactive: 0.957
CCc1nc2ccc(C(=O)N3CCN(S(=O)(=O)CC)CC3)cn2c1N(C)C(=O)c1cccc(OC)c1	inactive: 0.997
C[C@@H]1CN([C@@H](C)CO)C(=O)c2cccc(NC(=O)c3ccc(-c4nccs4)cc3)c2O[C@@H]1CN(C)Cc1ccc(-c2ccccc2)cc1	inactive: 0.983
C[C@H](CO)N1C[C@H](C)[C@@H](CN(C)Cc2ccc(C(=O)Nc3ccccc3N)cc2)Oc2ccc(NC(=O)Nc3ccc(C(F)(F)F)cc3)cc2C1=O	inactive: 0.984
O=C(C[C@@H]1C[C@H]2c3cc(NS(=O)(=O)c4ccc(F)cc4)ccc3O[C@H]2[C@@H](CO)O1)NCc1ccc(Oc2ccccc2)cc1	inactive: 1
C[C@H](CO)N1C[C@H](C)[C@@H](CN(C)S(=O)(=O)c2ccc(F)cc2)Oc2ccc(NC(=O)C3CC3)cc2CC1=O	inactive: 0.991
C[C@H](CO)N1C[C@H](C)[C@@H](CN(C)C(=O)Nc2ccc3c(c2)OCO3)Oc2ccc(NC(=O)Nc3cccc4ccccc34)cc2CC1=O	inactive: 0.971
C[C@@H]1CN([C@H](C)CO)C(=O)c2cc(NC(=O)NC3CCCCC3)ccc2O[C@@H](C)CCCCO[C@H]1CN(C)C(=O)C1CCCCC1	inactive: 0.993
CCC(CO)NCCNC(CC)CO.Cl.Cl (stereo not given)	inactive: 1.05
O=C(C[C@@H]1CC=CCC[C@@H](Cc2ccc(F)cc2)C(=O)OC[C@H](Cc2ccccc2)NC1=O)NCCO	inactive: 0.992
COc1ccc(NC(=O)Nc2ccc3c(c2)C(=O)N([C@@H](C)CO)C[C@@H](C)[C@H](CN(C)C(=O)Nc2c(C)noc2C)OCCCC[C@@H](C)O3)cc1	inactive: 0.967
CO[C@H](CN(C)S(=O)(=O)c1cccc(Cl)c1)[C@H](C)CN([C@H](C)CO)S(=O)(=O)c1cccc(Cl)c1	inactive: 1.03
O=C(N/N=C/[C@H](O)[C@@H](O)[C@@H](O)[C@H](O)C(=O)O)c1ccccn1	inactive: 1.01
C[C@H]1CN([C@@H](C)CO)S(=O)(=O)c2ccc(-c3cccc(C#N)c3)cc2O[C@@H]1CN(C)C(=O)c1ccncc1	inactive: 0.99
C[C@]12C(=O)N(CCCCCO)[C@@H]3C(=O)N(c4ccc(Cl)cc4)CC=C[C@]31O[C@@H]1/C=C\CCCOC(=O)[C@H]12	inactive: 0.967
C=CCN(CCCC)C(=O)[C@H]1N(C(C)(C)CO)C(=O)[C@H]2[C@H](C(=O)O)[C@@H]3C=C[C@@]21O3	inactive: 1.02

SMILES	relative growth
C[C@H]1CC=CC[C@@H](c2cccc(Cl)c2)NC(=O)[C@H](Cc2ccccc2)N(C)C(=O)c2ccccc2O1	inactive: 1.03
CC(=O)Nc1cccc(NC(C)=O)n1	inactive: 0.983
C[C@@H]1CN([C@@H](C)CO)C(=O)c2cc(C#CC3CC3)cnc2O[C@H]1CN(C)S(=O)(=O)c1cccc(F)c1	inactive: 1.01
COCC(=O)N1C[C@H](C)[C@H](OC)CN(C)C(=O)c2ccc(NC(=O)c3cc(C)on3)cc2OC[C@@H]1C	inactive: 0.999
CC(=O)N(C)C[C@@H]1Oc2ncc(C#C[C@@H](C)O)cc2C(=O)N([C@H](C)CO)C[C@H]1C	inactive: 1.01
CC(C)(C)[S@@](=O)N1Cc2cc(C(=O)N3CCc4ccccc4C3)nc(-c3cccc(-c4cccnc4)c3)c2[C@H]1CCO	inactive: 1.03
COC(=O)c1ccc2c(c1)NC(=O)CO2	inactive: 0.995
c1ccc(-c2nc3ccccc3o2)cc1	inactive: 0.985
c1ccc(Nc2nc3c(ccc4ccccc43)s2)cc1	inactive: 0.901
C[C@H]1CN([C@@H](C)CO)C(=O)c2cccc(NS(C)(=O)=O)c2O[C@H]1CN(C)C(=O)NC1CCCCC1	inactive: 1.02
C[C@@H]1CN([C@@H](C)CO)C(=O)Cc2cc(NS(=O)(=O)c3ccc(Cl)cc3)ccc2O[C@@H]1CN(C)Cc1ccc(Cl)c(Cl)c1	inactive: 1.03
C[C@H](CO)N1C[C@H](C)[C@H](CN(C)C(=O)[C@H](C)c2ccccc2)OCc2ccccc2-c2c(n(C)c3ccccc23)C1=O	inactive: 0.995
CCCN(C)C[C@H]1OCCCC[C@@H](C)Oc2ccc(NC(=O)Cc3ccccc3)cc2C(=O)N([C@H](C)CO)C[C@H]1C	inactive: 1
O=C(N[C@@H]1C=C[C@@H](CC(=O)N2CCOCC2)O[C@H]1CO)c1ccccn1	inactive: 1
C[C@@H]1CN([C@@H](C)CO)C(=O)c2cc(NS(C)(=O)=O)ccc2O[C@H]1CN(C)S(=O)(=O)c1cccs1	inactive: 0.999
C[C@H]1CC/C=C\[C@H]2O[C@@]34C=CCN(Cn5nnc6ccccc65)C(=O)[C@H]3N(CCO)C(=O)[C@@H]4[C@@H]2C(=O)O1	inactive: 0.996
COc1ccc(NC(=O)Nc2ccc3c(c2)C(=O)N([C@@H](C)CO)C[C@@H](C)[C@H](CN(C)C(=O)CCC(F)(F)F)OCCCC[C@H](C)O3)cc1	inactive: 0.837
O=C(C[C@@H]1CC[C@@H](NS(=O)(=O)c2ccc(F)cc2)[C@H](CO)O1)N1CCC(Cc2ccccc2)CC1	inactive: 0.998
O=C1CCOC[C@@H]2CCCN12	inactive: 0.98
COc1ccc(CN(C)C[C@H]2OCCCC[C@H](C)Oc3ccc(NC(=O)Nc4ccc(C(F)(F)F)cc4)cc3C(=O)N([C@@H](C)CO)C[C@H]2C)cc1	inactive: 1.01
